In publication PMC4336329 (PLoS ONE, 2015):
Screen size: about 310,000 compounds; about 2,200 (0.71%) showed an effect of 50% or more. The effect is printed as a negative number. The list shows a part of the results.

Target: human ether-à-go-go-related gene (hERG) potassium channel (human, UniProt Q12809)
Assay: primary screen, population patch clamp on CHO cells stably expressing hERG

Chain of human ether-à-go-go-related gene (hERG) potassium channel (Q12809 whole entry, looked up): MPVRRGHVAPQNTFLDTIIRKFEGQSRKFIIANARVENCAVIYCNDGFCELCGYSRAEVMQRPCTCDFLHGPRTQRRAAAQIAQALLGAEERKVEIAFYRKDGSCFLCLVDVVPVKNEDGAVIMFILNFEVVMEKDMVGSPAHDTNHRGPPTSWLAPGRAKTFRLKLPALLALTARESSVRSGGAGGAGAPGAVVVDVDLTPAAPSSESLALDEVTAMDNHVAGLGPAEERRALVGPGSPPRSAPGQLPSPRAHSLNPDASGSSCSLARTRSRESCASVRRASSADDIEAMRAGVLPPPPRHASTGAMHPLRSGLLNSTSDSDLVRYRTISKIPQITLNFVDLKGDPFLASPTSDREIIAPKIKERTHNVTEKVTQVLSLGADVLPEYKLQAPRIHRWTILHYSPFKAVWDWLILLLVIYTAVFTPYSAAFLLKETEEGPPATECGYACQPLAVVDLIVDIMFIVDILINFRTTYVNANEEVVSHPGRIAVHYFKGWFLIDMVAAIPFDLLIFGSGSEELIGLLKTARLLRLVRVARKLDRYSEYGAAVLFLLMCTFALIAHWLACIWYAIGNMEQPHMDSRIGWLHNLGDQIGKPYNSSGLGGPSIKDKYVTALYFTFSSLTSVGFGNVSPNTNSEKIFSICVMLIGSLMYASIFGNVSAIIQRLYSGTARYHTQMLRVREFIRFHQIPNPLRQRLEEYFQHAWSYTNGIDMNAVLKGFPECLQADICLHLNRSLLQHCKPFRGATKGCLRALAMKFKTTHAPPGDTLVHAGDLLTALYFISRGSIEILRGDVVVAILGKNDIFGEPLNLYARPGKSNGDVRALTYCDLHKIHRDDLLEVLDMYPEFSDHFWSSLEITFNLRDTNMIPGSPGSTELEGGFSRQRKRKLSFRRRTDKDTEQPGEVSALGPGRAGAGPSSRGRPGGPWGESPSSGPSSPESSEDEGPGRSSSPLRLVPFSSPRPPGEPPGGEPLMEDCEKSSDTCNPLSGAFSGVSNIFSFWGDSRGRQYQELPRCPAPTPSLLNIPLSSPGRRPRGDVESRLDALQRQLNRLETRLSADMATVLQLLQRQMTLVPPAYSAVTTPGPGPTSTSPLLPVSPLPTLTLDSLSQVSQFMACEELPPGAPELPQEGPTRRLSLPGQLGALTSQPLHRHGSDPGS

SMILES	hERG current change (%, negative = inhibition) at 1uM [%]
CCn1nc(C)c(NC(=O)CSc2nnc(-c3ccco3)n2C)c1C	6.3
CC(C)Cn1c(=O)c2sccc2n2c(CCCC(=O)NC3CCN(Cc4ccccc4)CC3)nnc12	14.8
COc1ccc(C)cc1NC(=O)NC1CCN(Cc2ccccc2)CC1	-17.4
Cn1c(=O)c2c(nc(Cc3ccc(N)cc3)n2C)n(C)c1=O	4.42
CCc1ccc2[nH]c3nc(N/N=C/c4ccc(O)cc4O)nnc3c2c1	11.5
COc1ccccc1C(=O)Nc1ccc2c(c1)n(C)c(=O)n2C	8.65
O=C(NC(=S)Nc1ccc2cn[nH]c2c1)c1ccccc1	4.86
c1ccc2c(Nc3ccc4c(c3)OCCO4)c3c(nc2c1)CCCC3	-83.5
COc1cc(C#N)ccc1OCC(=O)NCCC1=CCCCC1	8.37
C=CCN1C=CC(=CC=C(C#N)C#N)C=C1	10.5
Cc1cc(C)cc(N(CC(=O)Nc2ccccc2C(=O)N2CCOCC2)S(C)(=O)=O)c1	14.6
O=c1[nH]c(CSc2ncc(-c3ccc(F)cc3)n2Cc2ccco2)nc2ccccc12	-5.51
O=C(Nc1ccccc1)N1CCCCC1c1cccnc1 (stereo not shown)	7.75
CC1CCN(C(=S)c2ccc(O)cc2)CC1	-2.39
CCCCn1c(N)c(N(CC(C)C)C(=O)CC2OC(=O)c3ccccc32)c(=O)[nH]c1=O (stereo not shown)	6.41
Cc1ccc(CNCc2cc3c(C(C)(C)C)nn(-c4ccccc4)c3[nH]c2=O)cc1	13.3
C/C(=N/NC(=O)OC(C)(C)C)c1ccco1	7.83
O=C1c2ccsc2SCCN1Cc1ccccc1	16.8
COc1cccc(C(=O)NCCOc2cc(C)cc(C)c2)c1	10.9
NC(=O)C1(N2CCCCC2)CCN(C2CC(=O)N(Cc3ccc(N4CCCC4=O)cc3)C2=O)CC1 (stereo not shown)	10.4
CC(CC(=O)OCC(=O)NCc1ccc(Cl)cc1)c1ccccc1 (stereo not shown)	8.68
CCOC(=O)c1cnc(SC)nc1Oc1cccc(NC(=O)c2ccc(Cl)cc2)c1	-0.0105

SMILES	hERG current change (%, negative = inhibition) at 1uM [%]
O=C(CCNS(=O)(=O)c1ccccc1)OCc1nnc(-c2ccccc2)o1	14
Cc1cc(C(=O)CN2C(=O)NC3(CCCC3)C2=O)c(C)n1-c1ccc2c(c1)OCO2	-5
O=C(NCCNC(=O)c1ccco1)c1ccco1	12
O=C(CN1C(=O)S/C(=C\c2ccccc2F)C1=O)NC1CCS(=O)(=O)C1 (stereo not shown)	16.8
CC(C)CC(NC(=O)OC(C)(C)C)C(=O)NCc1ccccc1 (stereo not shown)	16.4
Cc1ccc(C(=O)CSc2ccc(-c3ccccc3)nn2)cc1	11.8
Cc1ccc(C)c(-n2c(CNC(=O)c3ccco3)nnc2SCC(=O)Nc2nccs2)c1	12.4
O=S1(=O)CCC(NC(=S)Nc2ccccc2)C1 (stereo not shown)	14.8
Cc1ccc2c(c1)C(c1ccccc1)NCC(=O)N2 (stereo not shown)	5.52
Cc1ccc(S(=O)(=O)c2nc(NCCN(C)C)sc2Cl)cc1	-42.2
CN(C)CCN(C(=O)c1cccc(N2C(=O)CCC2=O)c1)c1nc2ccc(Br)cc2s1.Cl	0.625
Cc1cccc(Nc2nnc(SCC(=O)Nc3cccc(S(=O)(=O)N4CCCCC4)c3)s2)c1	4.56
O=C(NCCCN1CCCC1=O)C(=O)NCC1OCCN1S(=O)(=O)c1ccc(Cl)cc1 (stereo not shown)	10.3
Cc1ccc2c(C)nc(SC(C(=O)c3ccccc3)c3ccccc3)nc2c1 (stereo not shown)	-4.75
Cc1cc(C)nc(N2CCC(C(=O)NNC(=O)c3ccc(Cl)cc3)CC2)n1	-4.31
Nc1ncnc(Oc2ccccc2F)c1[N+](=O)[O-]	13.6
COc1cccc(OC)c1NC(=O)Cn1nc(C)c2ccccc2c1=O	9.2
COc1cccc(C2N(c3cccc(Cl)c3)C(=O)C3CCCN32)c1OC (stereo not shown)	4.81
Cc1cccc(NC(=O)c2cnc3sccn3c2=O)c1	10.7
N/C(Cc1cccc2ccccc12)=N\OC(=O)COc1ccccc1	9.21
COc1ccccc1C(=O)Nc1ccnn1C1CCN(CCCc2ccccc2)CC1	-88.1
Cc1ccc(O)c(NC(=O)CN(C)S(=O)(=O)c2ccc(Cl)cc2)c1	-4.16

SMILES	hERG current change (%, negative = inhibition) at 1uM [%]
O=C(Nc1cccc(-c2cccc(F)c2)c1)C1CCN(Cc2ccco2)CC1	-6.98
Cc1cc(O)c(/C=N/Nc2ccccc2)c(=O)o1	13.5
CC(C)(C)c1ccc(-c2nnc(SCC(=O)Nc3sc4c(c3C#N)CCCC4)o2)cc1	14.5
O=C(CCN1C(=O)c2ccccc2C1=O)NC(=S)Nc1cccc(Cl)c1	9.01
CC(C)CNC(=O)NC1(C(F)(F)F)Oc2ccccc2O1	6.18
CCN1C(=O)[C@@H]2[C@@H](c3ccc(-c4ccc5c(c4)OCO5)cc3)N3CCCC[C@@]3(C(=O)OC)[C@@H]2C1=O.O=C(O)C(F)(F)F	17.8
CCCCCCOC(=O)c1ccc(NC(=O)c2cc(OC)c(OC)c(OC)c2Br)cc1	8.55
c1ccc2c(c1)-c1cccc3cccc-2c13	21.5
CCOC(=O)Cc1csc(NC(=O)CSc2nnc(C(C)C)n2C)n1	17.6
CN1C(=O)/C(=C\c2cc(N=Nc3ccccc3)ccc2O)SC1=S	5.06
CSc1ccc(CN2CCN(Cc3ccccc3Cl)CC2)cc1	1.91
Br.CCOc1ccc2c(c1)nc(SCC(=O)c1cccs1)n2C	0.0497
CNc1nccc(-c2ccc(Cl)cc2)c1C#N	16.7
CCCCCC(=O)NNC(=O)c1c(O)c2ccccc2n(CC)c1=O	8.92
O=C(OCn1nnc2ccccc2c1=O)c1cccc(S(=O)(=O)N2CCOCC2)c1	12.9
COC(=O)N(NC(=O)C(O)(CCC(C)C)CCC(C)C)c1ccccc1	16.5
Cc1nc2ncnn2c(C)c1Cc1cccc(C(F)(F)F)c1	4.45
O=C(/C=C/Nc1ccc(Oc2ccccc2Cl)cc1)c1ccco1	2.3
CC1(C(=O)N(c2ccccc2)C(C(=O)NC2CCCC2)c2ccccn2)CC(=O)N=C2C=CC=CN21 (stereo not shown)	11.7
CCC(C)(C)NC(=O)c1ccc(S(=O)(=O)N2CCCCCC2)cc1	4.06
Cl.Clc1ccc(Nc2nc(N3CCOCC3)nc(N3CCOCC3)n2)cc1Cl	8.3
COc1ccc(C2C(C#N)=C(N)Oc3n[nH]c(C)c32)cc1CN1CCN(c2ccc(F)cc2)CC1 (stereo not shown)	-2.41

SMILES	hERG current change (%, negative = inhibition) at 1uM [%]
O=c1cc(CNCCCO)c2ccccc2[nH]1	1.94
Cc1cccnc1NC(=S)NC(=O)c1cncc(Br)c1	7.66
CCOC(=O)c1ccc(-c2csc(NC(=O)CN3CCC(C)CC3)n2)cc1	7.99
O=[N+]([O-])c1cc(C(F)(F)F)ccc1N1CCCNCC1	-2.85
O=C(CN1CCN(c2ccc(O)cc2)CC1)Nc1ccc2c(c1)OCCCO2	4.42
O=C(CSc1oc(-c2ccccc2)nc1S(=O)(=O)c1ccc(F)cc1)NCC1CCCO1 (stereo not shown)	2.85
CC(C)(Oc1ccc(Cl)cc1)C(=O)OCc1nc2ccsc2c(=O)[nH]1	1.3
COc1ccc(C(=O)Nc2ccccc2-c2nnn(CC(=O)N3CCOCC3)n2)cc1	-4.6
Cc1ccc(NC(=O)COC(=O)c2ccc(-n3cnnn3)cc2)c(Br)c1	6.08
O=C(Nc1ccc(F)cc1)c1cc(-c2ccccc2)no1	8.73
Cc1cc(S(=O)(=O)NCc2ccccc2)ccc1OCC(=O)Nc1cccc([N+](=O)[O-])c1	5.87
Cc1cc2oc(C(=O)N(Cc3ccco3)C3CCS(=O)(=O)C3)cc(=O)c2cc1Cl (stereo not shown)	-1.14
CCOC(=O)C1CCCN(C(=O)C2CCN(S(=O)(=O)c3cnc[nH]3)CC2)C1 (stereo not shown)	14.3
c1ccc2c(c1)CNc1ccccc1O2	6.23
COc1ccccc1N(C)S(=O)(=O)c1ccc(C(=O)OCC(=O)N2CCCCCC2)cc1	8
N#CC1=C(N)OC2=C(C(=O)CCC2)C1c1ccc(OC(=O)N2CCOCC2)cc1 (stereo not shown)	5.89
O=S(=O)(c1ccc(Cl)cc1)N1CCN(CCc2ccccc2)CC1	10.6
Cc1ccc(C2CC(c3cccs3)=NN2C(=O)c2ccco2)o1 (stereo not shown)	-8.32
CCOC(=O)CSc1nnc(NC(=O)c2cccc(S(=O)(=O)N3CCCCC3)c2)s1	15.2
COc1ccc(/C=C/c2nc3ccccc3n2C)cc1	1.95
CC(C)N(CCO)C(=O)CCc1nnc(Cc2cccc(C(F)(F)F)c2)o1	-9.61
Cc1ccc(CN(C)C(=O)c2cc(Br)c(Br)s2)o1	13.9
